From PubChem BioAssay (NCI) come the findings set out here.

Common to all, as to assay: NCI tumour cell line growth inhibition, 48 h
Assay [1] concerns RXF 393 renal.
Assay [2] deals with A498 renal.
Assay [3] concerns SK-MEL-2 melanoma.
Assay [4] has as its system LXFL 529 NSCLC.
For assay [5], the system named is XF 498 CNS.
The test system of assay [6] is COLO 205 colon.
The subject of assay [7] is M14 melanoma.
Assay [8] relates to MOLT-4 leukemia.
In assay [9] the test system is IGROV1 ovarian.
Assay [10] concerns SR leukemia.
Assay [11] has as its system U251 CNS.

Structures are written as SMILES.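 How tested: cells in 96-well plates exposed to compound for 48 hours at five concentrations. TGI denotes the concentration required for complete inhibition of growth.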 For part of its entries the source gives two or more results. They are shown here; other results are not. An entry can have further records. Records of one sample usually come from different ranges of test concentrations, which the source does not state; a value can be the end of its range.

Consider `COc1cc(C(=O)N[C@H]2CCc3cc(OC)c(OC)c(OC)c3-c3ccc(SC)c(=O)cc32)cc(OC)c1OC`, for which the TGI in assay [1] was 22 nM and 26.4 µM; in assay [2], 756 nM and 34.7 nM; in assay [3] it was 202 nM and 34.3 µM; in [4] it was 25 µM and 57.2 nM; in [5], 25 µM and 82.2 nM; in assay [6], 25 µM and 92.4 nM. The TGI in assay [7] is 44.5 nM and > 100 µM.
`CCCCCCNCCCNc1c2cc(OC)ccc2nc2cccc([N+](=O)[O-])c12`: the TGI was 81.1 µM and 488 nM in [8]; 44.1 nM and 722 nM in assay [9]; 75.6 nM and 12 µM in assay [10]; 1.47 µM and 140 nM in [11].
